Measurements taken from US12043670B2, “Anti-BCMA antibody-drug conjugates and methods of use” (Eisai R&D Management Co., Ltd., priority 2020, dated 2024).

B1: AB200-(2Vk30)_R2-VH-v30 (antibody)
heavy: QVQLVQSGAEVKKPGSSVKVSCKASGGTFSNYWIHWVRQAPGQGLEWMGATYRSHSDTNYAQKFKSRVTITADKSTSTAYMELSSLRSEDTAVYYCARGAIYHGYDVIENWGQGTLVTVSSASTKGPSVFPLAPSSKSTSGGTAALGCLVKDYFPEPVTVSWNSGALTSGVHTFPAVLQSSGLYSLSSVVTVPSSSLGTQTYICNVNHKPSNTKVDKKVEPKSC
light: DIQMTQSPSSLSASVGDRVTITCRASQSISSYLNWYQQKPGKAPKLLIYATSNLQIGVPSRFSGSGSGTDFTLTISSLQPEDFATYYCQQYRRIPWTFGQGTKLEIKRTVAAPSVFIFPPSDEQLKSGTASVVCLLNNFYPREAKVQWKVDNALQSGNSQESVTEQDSKDSTYSLSSTLTLSKADYEKHKVYACEVTHQGLSSPVTKSFNRGEC
B2: AB200-(2Vk30)_R2-VH-v31 (antibody)
heavy: B1 heavy with H55Q, A61N, I101V, E109D
light: B1 light
B3: AB200-(2Vk30)_R2-VH-v37 (antibody)
heavy: B1 heavy with H55Q, N59Y, A61N, F64Y, I101V, E109D
light: B1 light
B4: AB200-(2Vk30)_R2-VH-v39 (antibody)
heavy: B1 heavy with S30T, S54I, N59Y, Q62E, Y102F, E109D
light: B1 light
B5: AB200-(2Vk30)_R2-VH-v4 (antibody)
heavy: B1 heavy with S30T
light: B1 light
B6: AB200-(2Vk30)_R2-VH-v40 (antibody)
heavy: B1 heavy with S30T, S54I, D57T, N59Y, Y105F, E109D
light: B1 light
B7: AB200-(2Vk30)_R2-VH-v43 (antibody)
heavy: B1 heavy with S30T, A50G, S54I, N59Y, Y105F, E109D
light: B1 light
B8: AB200-(2Vk30)_R2-VH-v45 (antibody)
heavy: B1 heavy with F29Y, S54I, D57T, A61N, Y102F, E109D
light: B1 light
B9: AB200-(2Vk30)_R2-VH-v51 (antibody)
heavy: B1 heavy with T28S, A50G, S54I, H55Q, N59Y, A61N
light: B1 light
B10: AB200-(2Vk30)_R2-VH-v59 (antibody)
heavy: B1 heavy with A50G, S54I, N59Y
light: B1 light
B11: AB200-(2Vk30)_R2-VH-v65 (antibody)
heavy: B1 heavy with S54I, H55Q, D57T, N59Y, A61N, Y105F, E109D
light: B1 light
B12: AB200-(2Vk30)_R2-VH-v67 (antibody)
heavy: B1 heavy with S54I, D57T, N59Y, A61N, Q62E, I101V, E109D
light: B1 light
B13: AB200-(2Vk31)_R2-VH-v66 (antibody)
heavy: B1 heavy with S54I, D57T, N59Y, A61N, F64Y, Y102F, E109D
light: B1 light with Y91F, I94L
B14: AB200-(2Vk31)_R2-VH-v73 (antibody)
heavy: B1 heavy with S54I, N59Y, F64Y, I101V, E109D
light: B1 light with Y91F, I94L
B15: AB200-(2Vk31)_R2-CDR1-hs-v3 (antibody)
heavy: B1 heavy with N31S, W33A, H35S, H55Q, N59Y, A61N, F64Y, I101V, E109D
light: B1 light with Y91F, I94L
B16: AB200-(2Vk31)_R2-CDR2-hs-v1 (antibody)
heavy: QVQLVQSGAEVKKPGSSVKVSCKASGGTFTNYWIHWVRQAPGQGLEWMGGIIPIFGTANYAQKFQGRVTITADKSTSTAYMELSSLRSEDTAVYYCARGAIFHGYDVIDNWGQGTLVTVSSASTKGPSVFPLAPSSKSTSGGTAALGCLVKDYFPEPVTVSWNSGALTSGVHTFPAVLQSSGLYSLSSVVTVPSSSLGTQTYICNVNHKPSNTKVDKKVEPKSC
light: B1 light with Y91F, I94L
B17: AB200-(2Vk31)_R2-CDR2-hs-v3 (antibody)
heavy: B16 heavy with I101V, F102Y
light: B1 light with Y91F, I94L
B18: AB200-(2Vk31)_R2-VH-v12 (antibody)
heavy: B1 heavy with F29Y, D57T, N59Y, A61N, F64Y, Y105F, E109D
light: B1 light with Y91F, I94L
B19: AB200-(2Vk31)_R2-VH-v17 (antibody)
heavy: B1 heavy with T28S, H55Q, N59Y, Y102F, E109D
light: B1 light with Y91F, I94L
B20: AB200-(2Vk31)_R2-VH-v18 (antibody)
heavy: B1 heavy with T28S, N59Y, Q62E, I101V, E109D
light: B1 light with Y91F, I94L
B21: AB200-(2Vk31)_R2-VH-v2 (antibody)
heavy: B1 heavy with S30T, D57T, A61N, I101V, E109D
light: B1 light with Y91F, I94L
B22: AB200-(2Vk31)_R2-VH-v20 (antibody)
heavy: B1 heavy with A50G, A61N
light: B1 light with Y91F, I94L
B23: AB200-(2Vk31)_R2-VH-v21 (antibody)
heavy: B1 heavy with A50G, N59Y, Y102F, E109D
light: B1 light with Y91F, I94L
B24: AB200-(2Vk31)_R2-VH-v25 (antibody)
heavy: B1 heavy with D57T, A61N, Y105F, E109D
light: B1 light with Y91F, I94L
B25: AB200-(2Vk31)_R2-VH-v27 (antibody)
heavy: B1 heavy with H55Q, D57T, N59Y, A61N, I101V, E109D
light: B1 light with Y91F, I94L

assay: ThermoFluor thermostability (Tm); type: physicochemical; conditions: Fab fragment; heavy chain clone paired with light chain AB200-(2Vk30)

Molecule | Tm
B1 | 77.090 °C
B2 | 79.955 °C
B3 | 81.855 °C
B4 | 78.621 °C
B5 | 77.268 °C
B6 | 79.807 °C
B7 | 77.757 °C
B8 | 78.131 °C
B9 | 79.046 °C
B10 | 77.316 °C
B11 | 81.557 °C
B12 | 82.324 °C

same assay, conditions: Fab fragment; heavy chain clone paired with light chain AB200-(2Vk31)

Molecule | Tm
B13 | 82.876 °C
B14 | 81.181 °C
B15 | 78.565 °C
B16 | 85.076 °C
B17 | 85.503 °C
B18 | 83.892 °C
B19 | 81.682 °C
B20 | 83.629 °C
B21 | 84.104 °C
B22 | 81.245 °C
B23 | 81.367 °C
B24 | 83.328 °C
B25 | 86.016 °C

Changes are numbered by the printed parent chain.
